# Experimental data from PubChem BioAssay AID686978 (National Center for Advancing Translational Sciences (NCATS), 2013).
# In all, about 420,000 compounds went through this assay and about 64,000 (15%) were called active. The inconclusive results got no clear call from the source; some entries with a clear call stand among them for comparison. Calls follow the shape of the dose curve; as a rule, active = well fitted inhibition curve with a large enough effect; inconclusive = small, poorly fitted or top-dose-only effect; inactive = flat fitted curve, though single readings scatter. Potencies of inconclusive entries are left out as doubtful fits.
# Experiment: qHTS for Inhibitors of human tyrosyl-DNA phosphodiesterase 1 (TDP1): qHTS in cells in absence of CPT; also: nearly all actives have a fitted effect of over 55% in size
# Conditions: DT40 Tdp1-/- hTDP1 cells, no CPT, ATP luminescence, 48 h; activity change, negative = growth inhibition: at 46.2 µM (top of the series) unless noted
# How it was run: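 Chicken DT40 Tdp1-/- cells stably complemented with human TDP1 were seeded at 400 cells/well with DMSO in place of 20 nM camptothecin. After compound pinning, cells grew at least 48 hr at 37 °C; viability read by CellTiter-Glo luminescence.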
# % is scaled to controls: 0 for no effect and ±100 for the full control effect; potency is read from the fitted curve at half-maximal effect; tags tell the direction and shape of the fitted curve.
Structure (SMILES),Potency,"activity change, negative = growth inhibition"
N#Cc1cc(C(=O)c2cc(Cl)ccc2O)cn(CC2CCCO2)c1=O (configuration not stated),active: 20.6 µM,
NC(=O)c1c(-c2ccc(Cl)cc2Cl)csc1NC(=O)Cc1ccccc1,active: 9.2 µM,
CC(=O)Nc1nc2cc3c(cc2s1)OCO3,active: 14.6 µM,
N/C(=N\NC(=O)c1ccc(Cl)cc1)c1cnccn1,"inconclusive [inhibitor, single point]",
O=C(Nc1ccccc1)C1CCCN(C(=O)c2ccc(Cl)cc2)C1 (configuration not stated),"inconclusive [inhibitor, single point]",
Cn1c(C(=O)N2CCN(c3ncccn3)CC2)cc2c(=O)n(C)c3ccccc3c21,active: 20.6 µM,
CCOC(=O)C1(C)CCCN1C(=O)c1ccc(F)c(Cl)c1 (configuration not stated),"inconclusive [inhibitor, single point]",
CN(CC(=O)Nc1ccc(Cl)cc1)CC(=O)Nc1cccc(Br)c1,"inconclusive [inhibitor, partial curve]",
Cc1nc(-c2ccc(S(=O)(=O)NCc3ccccc3Cl)cc2)co1,"inconclusive [inhibitor, partial curve]",
Cc1ccc(-c2cc(C(=O)OCn3nnc4ccccc4c3=O)c3ccccc3n2)cc1,inactive,
CCCCn1nnnc1NCc1ccc(OC)c(OC)c1,,inconclusive: -30.7% [inhibitor]
COc1ccc(-c2nc(CS(=O)CC(=O)NCc3ccco3)c(C)o2)cc1OC (configuration not stated),"inconclusive [inhibitor, single point]",
C=CCNC(=O)c1sccc1Oc1ccc(F)cc1[N+](=O)[O-],inactive,
CCOC(=O)Cn1nnc(-c2ccc(S(C)(=O)=O)cc2)n1,inactive,
Cc1cc(OCCCCN2C(=O)NC(C)(C)C2=O)ccc1[N+](=O)[O-],active: 11.6 µM,
CN(CC(=O)NCCc1ccccc1)S(=O)(=O)c1ccccc1,inactive,
Cc1c(/C=C(\CC(=O)O)c2nc3ccccc3s2)cc(C#N)n1C,"inconclusive [inhibitor, single point]",
COc1ccc(OC)c(S(=O)(=O)NCc2cn3ccsc3n2)c1,inactive,
O=C(NC1CC1)C1CCN(C2CCN(C(=O)CCOc3ccccc3)CC2)CC1,inactive,
O=S(=O)(Nc1ccccc1N1CCCCC1)c1ccc(Cl)s1,active: 8.2 µM,
CCOC(=O)C1=C(N)Oc2cc(O)ccc2C1c1cccc([N+](=O)[O-])c1 (configuration not stated),active: 16.4 µM,
Cc1cc(/C=N/NC(=O)c2cccc([N+](=O)[O-])c2)c(C)n1-c1ccc(Cl)cc1Cl,"inconclusive [inhibitor, single point]",
